Experimental data published in the supplement of paper PMC11417369.
The other results are listed elsewhere or left out.

The sequences below were run on PfAP2-HC AP2 domain (GST-tagged) (assay: gcPBM binding intensity (ln(normalized median fluorescence intensity)); higher = stronger DNA binding).
Summary of the method: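 Alexa488 anti-GST antibody, scanned at 488 nm, detected GST-tagged P. falciparum DNA-binding domains that had been expressed in E. coli and incubated for 1 h on an Agilent 4 × 180k array. The array carried primer-extended double-stranded 36-bp intergenic genomic probes and negative controls. Binding intensity is the highest Masliner-normalised natural-log median intensity across replicate spots of either orientation of each probe.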
With “TGTGCATAAATTTATGCACACATAAAAAAAAAAAAA [CACACA_site8954]” the “gcPBM binding intensity (ln)” value was 9.91. In the case of “TTACACATATTTTTAATTATTCTGAATTCAAAAAAA [CACACA_negctrl_site1706]”, the “gcPBM binding intensity (ln)” value is reported as 9.17. In the case of “ATAATCATAAAATAAACACACATATATAAATATATT [CACACA_site276]”, the “gcPBM binding intensity (ln)” value is reported as 9.78. With “GTAATATTAAAATATACACACATAGAATATATATAT [CACACA_site4391]” the “gcPBM binding intensity (ln)” value was 9.87. “TTTTTTATATTGTGATGTACAAATTTTAAAATGTAG [XGTACX_site1875]” was tested, and the “gcPBM binding intensity (ln)” value was 9.39. With “AAATTCGTTATAAAAACATGCAACGATCAACATTGT [TGCATGCA_site844]” the “gcPBM binding intensity (ln)” value was 9.48. For “TTACTCTTTATATAATGTACATATATATATATATTA [XGTACX_site2624]”, the “gcPBM binding intensity (ln)” value was 9.82. With “GTGTGGAGTTACAAAGAGGAGAACCTCACAGTAATC [CACACA_negctrl_site527]” the “gcPBM binding intensity (ln)” value was 9.78. For “TTATGTGATAAAAAAAAAATACAACAAAGTTAAATA [GTGCAC_negctrl_site36]”, the “gcPBM binding intensity (ln)” value was 9.58. “ATATATATATATATAATACACACTTATGAAATGTCT [CACACA_site1827]” was tested, and the “gcPBM binding intensity (ln)” value was 9.82. “TATAAAGGTTGGTACTGTACAATATAAGAAAAAAAA [XGTACX_site435]” was tested, and the “gcPBM binding intensity (ln)” value was 9.56. In the case of “AAATAGTTCATAAAAAGTACAAAATTTTTATCCGTA [XGTACX_site2796]”, the “gcPBM binding intensity (ln)” value is reported as 9.63. “ATCATTCATTTAACAACACACAACATATTTATCATA [CACACA_site1041]” was tested, and the “gcPBM binding intensity (ln)” value was 9.83. With “TATATATTATATAAGAGTACATATAATTATAGTTTT [XGTACX_site5039]” the “gcPBM binding intensity (ln)” value was 9.46. In the case of “TGAAAAAAGAAAAATACACACATATAACATAATATA [CACACA_site7126]”, the “gcPBM binding intensity (ln)” value is reported as 10.1. With “AATCTATATTAATACACACACACATATATTTATATA [CACACA_site7732]” the “gcPBM binding intensity (ln)” value was 10.4. “TTTATTTTGACAGATTGTACACTTTATACATGTTTT [XGTACX_site2356]” was tested, and the “gcPBM binding intensity (ln)” value was 9.85. For “GTATATATTTCCAGAAGTACTTATTTTTATGTATGT [XGTACX_site4079]”, the “gcPBM binding intensity (ln)” value was 9.71. With “TTATATTTATTGATATGTACATATTATAATTAATTA [XGTACX_site586]” the “gcPBM binding intensity (ln)” value was 9.54. In the case of “TGATTACATATGATGTGTACCTAATTTTGTTTACAC [XGTACX_site7032]”, the “gcPBM binding intensity (ln)” value is reported as 10. “AAAAATGCCAGAAAACGTACTCGGATTTTCTAATAT [XGTACX_site6552]” was tested, and the “gcPBM binding intensity (ln)” value was 9.49. For “AAAACACGCGGACACACACACACACCCACCCATATA [CACACA_site8688]”, the “gcPBM binding intensity (ln)” value was 11.6. With “TTTTAATATTTTGCCTGTACATAAAAGTGAGAAGAT [XGTACX_site2503]” the “gcPBM binding intensity (ln)” value was 9.64. For “ACTATATATATAAGTGCATGTTCATTATACCTAAAG [TGCATGCA_site696]”, the “gcPBM binding intensity (ln)” value was 9.77. In the case of “AAAAATTCATTTTTATGTACGTACAAATTCTTCGTT [XGTACX_site2471]”, the “gcPBM binding intensity (ln)” value is reported as 9.57. In the case of “TTTTAAAAAAATATAATACACACCAAAAATATGCAC [CACACA_site2131]”, the “gcPBM binding intensity (ln)” value is reported as 9.78. With “AGTAAATTATATATCTGTACATATATATATGTGTAT [XGTACX_site5519]” the “gcPBM binding intensity (ln)” value was 9.77. In the case of “CTCACAAATGAATACACACAAACATATATATTTATA [CACACA_site1620]”, the “gcPBM binding intensity (ln)” value is reported as 10.1. For “TGGAATAATACGCGTACACACATATAAATATTAATA [CACACA_site6211]”, the “gcPBM binding intensity (ln)” value was 10.1. With “ACACATGAATATTGTAGTACGGCAATTAATATAATA [XGTACX_site4589]” the “gcPBM binding intensity (ln)” value was 9.78. In the case of “ATATAATGGCTAAATAGTACAATATAATATTTTTTA [XGTACX_site8922]”, the “gcPBM binding intensity (ln)” value is reported as 9.5. With “AGAAAGGAAAAAACCTCACACATGCTTTTAATAGTA [CACACA_site4602]” the “gcPBM binding intensity (ln)” value was 9.78. In the case of “CTATTCTATTTTTATTGTACATATATATAATTTGAA [XGTACX_site389]”, the “gcPBM binding intensity (ln)” value is reported as 9.56. For “AAAAAAATATAAATACGTACATATATATATATATAT [XGTACX_site432]”, the “gcPBM binding intensity (ln)” value was 10.2. “ATTACCAACAGATCTTGTACATATTAAAGCATCTTA [XGTACX_site2361]” was tested, and the “gcPBM binding intensity (ln)” value was 9.51. In the case of “TAAGTACGACTTGACACACATACACATATATATATA [CACACA_site1286]”, the “gcPBM binding intensity (ln)” value is reported as 9.81. For “CAAATACACCAACACACACACACAAAAAAAAAAAAA [CACACA_site514]”, the “gcPBM binding intensity (ln)” value was 11.3. “TGAAAGAATAGAATGAGTACTAATTTAAATTACACT [XGTACX_site1120]” was tested, and the “gcPBM binding intensity (ln)” value was 9.68. For “TTGATTTCATTTTAAGTGCATAACTAATATTATATA [GTGCAC_site9713]”, the “gcPBM binding intensity (ln)” value was 9.46. With “TTCTTTATATATTTTTGTACATATTTATTTTTAGAG [XGTACX_site6757]” the “gcPBM binding intensity (ln)” value was 9.93. With “ATATACAAAGAAGCAGTGCATATTTTCTTATTTATG [GTGCAC_site9567]” the “gcPBM binding intensity (ln)” value was 9.61. In the case of “TCTTTGGTAATATATATGTATAAATATAAATATATA [CACACA_negctrl_site1566]”, the “gcPBM binding intensity (ln)” value is reported as 9.37. “ATATATATATATGTTAGTACATAACAAGTGTGCATA [XGTACX_site1527]” was tested, and the “gcPBM binding intensity (ln)” value was 10. For “ATAAAACAAGCAAATCGTACAAAAGGATAATATATA [XGTACX_site5592]”, the “gcPBM binding intensity (ln)” value was 10.1. With “ATGTATGGTTTATATGTTCATTTGTTCACCTATTTA [CACACA_negctrl_site1533]” the “gcPBM binding intensity (ln)” value was 9.93. “AAAAAAAAAAAAAACACACACACACCCATACCCATA [CACACA_site5577]” was tested, and the “gcPBM binding intensity (ln)” value was 10.5. “TTAGGTAGAAAAAAGACACACACATTATATATATAT [CACACA_site8016]” was tested, and the “gcPBM binding intensity (ln)” value was 10.8. “ATATATATTTAAGAGGGTACAAAAATTTATGAGCAT [XGTACX_site6156]” was tested, and the “gcPBM binding intensity (ln)” value was 9.69. In the case of “TGTGCTTATCCTAACACACACAACATATAAGAAAAA [CACACA_site3319]”, the “gcPBM binding intensity (ln)” value is reported as 9.92. For “AAAAAATAAAAAATATGTACACATTCAAAATTTTAC [XGTACX_site8479]”, the “gcPBM binding intensity (ln)” value was 9.71. In the case of “TATACATATTTATACACACACACATATATTTATATA [CACACA_site6727]”, the “gcPBM binding intensity (ln)” value is reported as 10.3. For “AAAAAGAAAAAAAACACACACAAATATAAATAAATA [CACACA_site1183]”, the “gcPBM binding intensity (ln)” value was 10.2. In the case of “ATATATATATATATATGTACATATTACATTACTTAT [XGTACX_site749]”, the “gcPBM binding intensity (ln)” value is reported as 9.71. GATAAAATGAGACCAGTGCATTATTAGTTGTACACC was tested, and the “gcPBM binding intensity (ln)” value was 9.73. “TTTTTTGCTAAGTGTACACAAATGTTTATTAATTTA [CACACA_site5859]” was tested, and the “gcPBM binding intensity (ln)” value was 9.58. In the case of “TTATGTTGTAAATGCACACATACAAATACATATACA [CACACA_site1368]”, the “gcPBM binding intensity (ln)” value is reported as 9.75. With “TACAATATAAAATACACACGCACACCGAAAAAAAAA [CACACA_site5865]” the “gcPBM binding intensity (ln)” value was 10.3.
